Measurements published in article PMC12136788.
This is one part of the list.

T1: UNK ZnF1-3 (human, UniProt Q9C0B0 31-174)
T1 sequence: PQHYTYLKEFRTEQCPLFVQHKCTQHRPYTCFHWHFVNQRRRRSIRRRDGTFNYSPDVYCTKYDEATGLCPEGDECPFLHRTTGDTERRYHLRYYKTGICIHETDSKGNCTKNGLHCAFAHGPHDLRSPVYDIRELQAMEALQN

B1: chr16:71807222:71807223:-_ENSG00000166747_ENST00000299980|perfect_dup|motif|central (ssRNA)
RNA: GGGAGUUCUACAGUCCGACGAUCUCCUGCAAGAUCUCUGCACAUCUCUGAGGAGCCCAUGCAGCCGAGGGUACAAAGUGCGGACCCCUGUACGAAUUGCGUGCUAUGAUUAAGAUCAUUCUUGAUACAGUUGGUCAUGAGAAGCAACAGAGGAUUGAGCAUCA
B2: 82950117_82950237_576_3pUTR_ENSG00000005700_ENST00000306270|human|control|control (ssRNA)
RNA: GGGAGUUCUACAGUCCGACGAUCCUCCCCUUUGUUACCACAGAAAGGACAUCCAAAGCAUGCUUCAGGGAUCGACACUUUGAUGUGCAGUCAGGCAUGGGUGAACUCAUCCUAACUGUUUUUAUACCACUUACUUCAGAAUCGCAACAGAGGAUUGAGCAUCA
B3: chr11:46405157:46405158:+_ENSG00000110492_ENST00000395566|hu_hu|hu_hu_hu_mus_False|1_88 (ssRNA)
RNA: GGGAGUUCUACAGUCCGACGAUCCCCUCCCCACUUUGGGCACUUGGUGAGAGGGACAGAGGACAGGCGUGAUUGACAGAGCUGACAGGAAGACAAAAGGCACUGGUGGGUUAUAUCUUGGGCCUGUGGGAGAGGAGGCGUGGGCAACAGAGGAUUGAGCAUCA
B4: chr1:118502009:118502010:+_ENSG00000065183_ENST00000349139|hu_hu|FALSE|FALSE (ssRNA)
RNA: GGGAGUUCUACAGUCCGACGAUCCGUUAGAAUCAACUUCUCCCUCUUUUUCCUCUUCCUCUUCUUCUCUUCCAAGUGGCUAGUAGCAUCAGCAAAAAACAUAACUUCACUUUUUGCCUCGCAUUCCCUCUUGAGAUAAUCAAGCAACAGAGGAUUGAGCAUCA
B5: chr4:57314706:57314707:+_ENSG00000128050_ENST00000264221|hu_mus|hu_hu_hu_mus_True|1_78 (ssRNA)
RNA: GGGAGUUCUACAGUCCGACGAUCCAGAAUUUCAAAAAUAGCUUGUGUGGCAUGACUCAUGAUAUCCACUUCAGUCUGCCCUAUAACAAGGCCAGCAAAACAGAAUUUUGCAGCAAUGAGUUGCUCCUCAGACCACUGUGGGUCCAACAGAGGAUUGAGCAUCA
B6: chrX:160370135:160370136:+_ENSMUSG00000031367_ENSMUST00000069041|mus_mus|motif|central (ssRNA)
RNA: GGGAGUUCUACAGUCCGACGAUCAAUGAAGCAGCUUAGCAAAACAGUAAUACUGACAAGACAUCAUCUUACACCAUUAGCGGACAUGGACAUGAGAGGCAGUGACCAUCUACAGUGUGAAAUGCCACAAGAAGUCAUCAGCAACAACAGAGGAUUGAGCAUCA
B7: 149506530_149506650_4406_3pUTR_ENSMUSG00000003452_ENSMUST00000086829|mouse|control|control (ssRNA)
RNA: GGGAGUUCUACAGUCCGACGAUCAAGUUAAGGCUACCUGACAAAGACAAGGAGUCAGGGUUAGGCGCAGUUAUGUGGGCAGCACUUGAGAACUGAGGAAUCCAAGUUAGACCUUACAGCUCAACUAGCUGUUGUCCUUGUUUUCAACAGAGGAUUGAGCAUCA
B8: chr1:1735927:1735928:-_ENSG00000078369_ENST00000378609|hu_mus|FALSE|FALSE (ssRNA)
RNA: GGGAGUUCUACAGUCCGACGAUCCAGCUCACGACUCACACGCACAUUCCCUUCACGAGUUUUCAGGUUGUAAAUGGAGCAGAUGUUAUCCAGGCCACCACAGGCCACAUAAUUCCCAGAAGGAGCGUAUGCGCAGGUCAUGACCAACAGAGGAUUGAGCAUCA
B9: chr4:77932910:77932911:+_ENSG00000138758_ENST00000541121|hu_hu|FALSE|FALSE (ssRNA)
RNA: GGGAGUUCUACAGUCCGACGAUCUUUAAUCUUCAAUUCCUCUUGCAGGUAGGCCUCGAACUGGGCAUCAAUAUAUUCUACUAUCGGCUUAUAGCUGUCAUCUUUAUUUAUCUGGUCUCCAAAUCCCACGGUGUCAACAAUGGUCAACAGAGGAUUGAGCAUCA
B10: chrX:140365796:140365797:-_ENSMUSG00000031285_ENSMUST00000033642|mus_mus|mus_mus_mus_hu_False|28_38 (ssRNA)
RNA: GGGAGUUCUACAGUCCGACGAUCCUUCUCAUUACUCAGUGCCUGCAAGGUUCUGGUUCGGUAGAAGCUACAGUGGGCGCUGUGAGUGGGGCUAGGCAGUCCAUUCAUCCGUGACCCUCGCAUGUUCCUGGAUGUCUUAUCUCUCAACAGAGGAUUGAGCAUCA
B11: chr14:31998760:31998761:-_ENSMUSG00000021910_ENSMUST00000163846|mus_mus|motif|central (ssRNA)
RNA: GGGAGUUCUACAGUCCGACGAUCUGCAGGCAGAAUGGCCACAUGAAGGACACCCCAAAGCACAAGACAGGUACAGACACGGUGGAGCUGGGAAGGCUUUCCAGCUCUGGAGUCACAAAAGGAAAAACAGCUUUUUGUCGUCUCCAACAGAGGAUUGAGCAUCA
B12: chr10:27409400:27409401:-_ENSG00000136758_ENST00000375972|hu_mus|FALSE|FALSE (ssRNA)
RNA: GGGAGUUCUACAGUCCGACGAUCAGCUUGGUUCACAAGAUUCUCCAACUCUGCUCCAGAGAACCCAACAGUCCCUCGAGCUAUGAUUUCUGGAUCAACAGAUUUAUCAAACUUUAUCUUGUUGAGAUACCAUUUCAAAAUUUCCAACAGAGGAUUGAGCAUCA
B13: chr12:73047227:73047228:+_ENSMUSG00000034574_ENSMUST00000085299|mus_mus|FALSE|FALSE (ssRNA)
RNA: GGGAGUUCUACAGUCCGACGAUCUUCAAAUCUUUUGGCAAAUUCUAGUUCAUCUUCAUUUCGGAGCAUUUCAAAAAAGUCUAAAUGCCUGUCUAGUGUUGAAUUUUCAUGUUCCCUUAAUUUAUCUAUAACAGGUUGAAUUCCCAACAGAGGAUUGAGCAUCA
B14: chr7:133995287:133995288:-_ENSMUSG00000030689_ENSMUST00000106343|mus_mus|FALSE|FALSE (ssRNA)
RNA: GGGAGUUCUACAGUCCGACGAUCGCCUGCCUUUGUUCUCAGGAAUUCUUCUAUGAGAUUGAACUCUCCACUCUGGCCACUAAGACCCUGGAGGUCACAGUCUGGGACUACGACAUUGGCAAAUCCAAUGACUUCAUAGGUGAGCAACAGAGGAUUGAGCAUCA
B15: chr16:94690367:94690368:+_ENSMUSG00000040785_ENSMUST00000117648|mus_mus|motif|central (ssRNA)
RNA: GGGAGUUCUACAGUCCGACGAUCUCUGUAUUUGCCACUGCCUACAGGUCACUAAAAAUACCUAGUUUUUGAAUAGUUUCGGAUACAGUUAGCUUGUUUUCAGGCCACAUUACAAGAUUGCAUGCAUUACUUUACACAAAAGUCCAACAGAGGAUUGAGCAUCA
B16: chr6:51419726:51419727:-_ENSMUSG00000004980_ENSMUST00000114459|mus_mus|FALSE|FALSE (ssRNA)
RNA: GGGAGUUCUACAGUCCGACGAUCUCCAUCGCGGACUCAGUCGCUUCAGCCCGAUUUCCCGCAGCCGAGCGAGAUGAGAAAGACCUCCGCGGACGGACGCGCACGGGACUCGUCCUGGCGCUGUGGGGAGAGCAGGCGAUGGCCCAACAGAGGAUUGAGCAUCA
B17: chr4:57314706:57314707:+_ENSG00000128050_ENST00000264221|hu_hu|FALSE|FALSE (ssRNA)
RNA: GGGAGUUCUACAGUCCGACGAUCCAGUAUUUCAAAUAUAGCCUGUGUAGCAUGACUCAUGAUAUCCACUUCAGUCUGGCCUAUAAGAAGUCCAGCAAAGCAAAAUUUUGCAGCAAUCAGCUGUUCCUCAGACCACUGUGGGUCCAACAGAGGAUUGAGCAUCA
B18: chr11:87793471:87793472:-_ENSMUSG00000020483_ENSMUST00000020775|mus_mus|mus_mus_mus_hu_False|1_68 (ssRNA)
RNA: GGGAGUUCUACAGUCCGACGAUCUGGACUUGAAAAUAAAAGAAUAAGCUGGAUCCCCCACCCCCCCACAGUGUCAACCCUACACGAGAGUUUUGAAGGCGACUCAUGAAAAUCAGCAGCUCAAACGGCAAUGACCACCCACCCCAACAGAGGAUUGAGCAUCA
B19: chr17:63407507:63407508:-_ENSMUSG00000023965_ENSMUST00000024761|mus_mus|FALSE|FALSE (ssRNA)
RNA: GGGAGUUCUACAGUCCGACGAUCGCUGAAUCAAACAACGCAGGCUCUUUUGGAAGUCUCCCUUUCUUCAUGAGCUGCUGGCAUCCUUACAGUUCGUUAUUAGCCAAGGGAGAUCACAGGACUGGGCGCUGAAGGAUCUUAGAUCAACAGAGGAUUGAGCAUCA
B20: chr12:48362563:48362564:+_ENSG00000134291_ENST00000256686|hu_hu|hu_hu_hu_mus_False|8_58 (ssRNA)
RNA: GGGAGUUCUACAGUCCGACGAUCUCCGUCAAGCCCUUCGAUAGACCCUUGCGGGGGAAACUGUAAUCACUUUGUAUUUCUAAAAAAAAGAAACGCCAAAAACUUUCCAAAAAGCGGGGGUGGGGUGUCCCAGGCCUGGGAGGUCAACAGAGGAUUGAGCAUCA
B21: chr12:86369911:86369912:+_ENSMUSG00000021244_ENSMUST00000021670|mus_mus|FALSE|FALSE (ssRNA)
RNA: GGGAGUUCUACAGUCCGACGAUCAACAGUUGCUUUGGGGCCUUUCCACUGUGGUCCACUCUGUCGAGGACUUAGGGAUGUAUUGGGAGUUAUAUAAAAUUGAGAUGCUGGGCCCCGAGGGAUCGUUCCCCAUUUGCUUUUAGUCAACAGAGGAUUGAGCAUCA
B22: chrM:14062:14063:+_ENSG00000198786_ENST00000361567|hu_hu|FALSE|FALSE (ssRNA)
RNA: GGGAGUUCUACAGUCCGACGAUCGUGAUGAUGGAGGUGGAGAUUUGGUGCUGUGAAAUUGUUUUAGGUAAUAGCUUUUCUAGUCAGGUUAGGUCUAGGAGGAGUAGGGGCAGGUUUUGGCUCGUAAGAAGGCCUAGAUAGGGGCAACAGAGGAUUGAGCAUCA

molecular target: T1, UNK ZnF1-3; assay: nsRBNS (natural sequence RNA bind-n-seq); RBNS binding buffer (assumed for nsRBNS): 25 mM Tris pH 7.5, 150 mM KCl, 3 mM MgCl2, 0.01% Triton X-100, 500 ug/ml BSA, 20 U/ml SUPERase-In, 4 C; UNK is unkempt and MSI1 is Musashi-1; names of the RNAs are library labels; protein concentration not given here; high values mean tight binding

Going from B1 to B2, the binding signal falls from 1.33 enrichment R to 1.05 enrichment R.

Compared with B3, B4 is lower in binding signal: 3.09 enrichment R for the first, 0.933 enrichment R for the second.

Compared with B5, B6 is higher in binding signal: 0.975 enrichment R for the first, 1.62 enrichment R for the second.

Going from B7 to B8, the binding signal rises from 1.03 enrichment R to 1.63 enrichment R.

First: B9
Second: B10
The binding signal of the first is higher: 0.954 enrichment R for the first, 0.657 enrichment R for the second.

Compared with B11, B12 is higher in binding signal: 1.13 enrichment R for the first, 1.23 enrichment R for the second.

Going from B13 to B14, the binding signal rises from 0.652 enrichment R to 1.06 enrichment R.

Compared with B15, B16 is lower in binding signal: 1 enrichment R for the first, 0.455 enrichment R for the second.

Going from B17 to B18, the binding signal rises from 0.911 enrichment R to 2.36 enrichment R.

First: B19
Second: B20
The binding signal of the first is lower: 1 enrichment R for the first, 1.69 enrichment R for the second.

First: B21
Second: B22
The binding signal of the first is lower: 0.914 enrichment R for the first, 2.28 enrichment R for the second.
